Experimental data from the RNAGym collection of RNA variant scans (doi:10.1093/nar/gkz1192).
The source gives no read counts; variants with many changes may rest on few reads.

B1: CPEB3 Ribozyme (parent)
chain: UAACAGGGGGCCACAGCAGAAGCGUUCACGUCGCAGCCCCUGUCAGAUUCUGGUGAAUCUGCGAAUUCUGCUGUAUAUCUC

Variants of: B1
Experiment: self-cleavage, relative activity (ratio to wild type); higher = more cleavage; in vitro, sequencing
Method in brief: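 Relative activity compares each variant's cleaved/total read fraction with that of the unmutated ribozyme. To get these fractions, barcoded CPEB3 ribozyme libraries from rounds of error-prone PCR were transcribed with T7 RNA polymerase for 5 hours at 37°C and then given 15 min of DNase I treatment before EDTA was added. The RNAs were reverse transcribed with template switching and sequenced on Illumina, and DNA sequencing linked barcodes to variants. A minimum of 5 reads applied, and three batches were averaged.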

Row | Variant | self-cleavage
1 | U25C U41C U51A G63A U74C | 0.2
2 | U26A U58A U67A U69C | 0.17
3 | U26A U60C U67C | 0.19
4 | U26A A47G U66C U76C | 0.16
5 | U26A C29G G63A | 0.55
6 | U25C U41A U60C G73A U80A | 0.14
7 | U26A A45U U78C | 0.34
8 | U26A U43C U51A | 0.38
9 | U25G C29A A35U C79G | 0.09
10 | U26A U60A G61C | 0.19
11 | U26A A64G U78C | 0.46
12 | U25C U43C A64G A65U U72C | 0.19
13 | U25C U48C U80G | 0.27
14 | U25G U26C A35G U48A C62A | 0.07
15 | U26A A35U U41C U76C | 0.18
16 | U25C U54A A57C U58A U60A U72G | 0.06
17 | U26A U31C U48C U51G A65U U69C A77G | 0.08
18 | U25C U69C C71U | 0.11
19 | U25C U49C U60A U80C | 0.07
20 | U26C A28G U43C A45G | 0.54
21 | U26A A35G U51A U67A | 1.21

Row | Variant | self-cleavage
22 | U25C U43A A56G U60A U80C | 0.16
23 | U26A U41C A47G | 0.57
24 | U26A A45G U69G | 0.26
25 | U26A G46U U60C U66A | 0.23
26 | U25C U51A U78A | 0.14
27 | U26A C40G U54A | 0.2
28 | U26A G33A C40U U54G U80C | 0.09
29 | U25G C62G U69A | 0.19
30 | U26A G61C U78A | 0.25
31 | U26A A45G U48C U80C | 0.27
32 | U26A U41C U48C U69A G73A | 0.18
33 | U25C U41A G46U A57G | 0.22
34 | U26C A28G A56G C68G G73A U78C | 0.07
35 | U26A A28G A57U A64G | 0.13
36 | U26A C62G U78C | 0.12
37 | U25C U41C U58C | 0.06
38 | U25C U41A U48C U67A | 0.08
39 | U25C U43A A65G | 0.16
40 | U25C U41C U58C A64G U69A | 0.03
41 | U26A U43C A56G | 0.14
42 | U25C U41C G55U U58C U80A | 0.08

Row | Variant | self-cleavage
43 | U25C U67G A75G | 0.07
44 | U26A A28G U54C A56U A64G | 0.09
45 | U25G C29U U48A U51C | 0.04
46 | U25G C34G U58A | 0.22
47 | U26A A35G U58A U69C | 0.33
48 | U26A C50A U69A | 0.33
49 | U25G U51C C68U U78C | 0.33
50 | U26A U41A U48C G52A A56U | 0.09
51 | U25C U41C A45U U51C U54C | 0.31
52 | U26A A45U A57G C71U | 0.07
53 | U25C U43A U51G U66C | 0.22
54 | U25C U58C A77U | 0.11
55 | U26A A28G C39U U43G U54C A57U | 0.05
56 | U25C U51C A65G U67A U72C | 0.05
57 | U26A A35G U41C A56U U66C U78C | 0.09
58 | U25C U43C A64U | 0.21
59 | U26A A35U A45G A47G A77C | 0.12
60 | U26C A28G U49C | 0.19
61 | U26A A28U A64G U80C | 0.61
62 | U25C U43C U80A | 0.24
63 | U25C U41C U60A U66C | 0.12

Row | Variant | self-cleavage
64 | U26A U49C A65U | 0.08
65 | U25G C37U U67C | 0.08
66 | U26A U31C U58C U60A | 0.44
67 | U26A U49C U54A | 0.23
68 | U25C U60A A77U | 0.11
69 | U26A A35G A45G G70A | 0.86
70 | U26A C29A U41C U49C U60A A64U U76A | 0.06
71 | U26A A47G U60A | 0.19
72 | U25C U67C A77U | 0.07
73 | U25C U69C U72C U80C | 0.08
74 | U26A U48C U49C U66C | 0.07
75 | U25C U43C A57U | 0.21
76 | U26A A75G U80C | 0.61
77 | U26A U43C G63A | 0.25
78 | U26A G42A G61C U66C | 0.07
79 | U25C U41A C50U A56G | 0.15
80 | U26A C32U A47G C68A | 0.1
81 | U25G U41A U54C A65G U78C | 0.03
82 | U26C A28G A65G | 0.14
83 | U26A U54A U60A | 0.32
84 | U26A U67C A75G U80C | 0.1
